Assay results published in patent US20170082633A1 (WHITEHEAD INSTITUTE FOR BIOMEDICAL RESEARCH, published 2017).

Experiments:
Experiment in all cases: FLAG IP from transfected HEK-293T cells, immunoblot
FLAG-metap2 = molecular target: T1, FLAG-metap2 (UniProt P50579 1-478)
T1 construct: Control bait; also called control protein Metap2
Protocol: (§1) HEK-293T cells were cultured in DMEM supplemented with 10% inactivated fetal bovine serum, penicillin (100 IU/mL), and streptomycin (100 μg/mL) and maintained at 37° C. and 5% CO₂. Two million HEK-293T cells were plated in 10 cm culture dishes.
(§2) Transfection mixes were taken up to a total of 5 μg of DNA using empty pRK5. HEK-293T cells stably expressing FLAG-tagged proteins were rinsed once with ice-cold PBS and lysed in ice-cold lysis buffer (40 mM HEPES pH 7.4, 1% Triton X-100, 10 mM β-glycerol phosphate, 10 mM pyrophosphate, 2.5 mM MgC12 and 1 tablet of EDTA-free protease inhibitor (Roche) per 25 ml buffer). The soluble fractions from cell lysates were isolated by centrifugation at 13,000 rpm for 10 min in a microcentrifuge. […] Immunoprecipitates were washed three times with lysis buffer containing 500 mM NaCl. Immunoprecipitated proteins were denatured by the addition of 50 μL of sample buffer and incubation at RT for 30 min. It is critical that the samples containing SLC38A9 are neither boiled nor frozen prior to resolution by SDS-PAGE and analysis by immunoblotting. A similar protocol was employed when preparing samples for mass spectrometry.

FLAG-SLC38A9.1 Δ110 = molecular target: T2, FLAG-SLC38A9.1 Δ110 (human, UniProt Q8NBW4 111-561)
T2 construct: also called SLC38A9 Δ110
T2 sequence: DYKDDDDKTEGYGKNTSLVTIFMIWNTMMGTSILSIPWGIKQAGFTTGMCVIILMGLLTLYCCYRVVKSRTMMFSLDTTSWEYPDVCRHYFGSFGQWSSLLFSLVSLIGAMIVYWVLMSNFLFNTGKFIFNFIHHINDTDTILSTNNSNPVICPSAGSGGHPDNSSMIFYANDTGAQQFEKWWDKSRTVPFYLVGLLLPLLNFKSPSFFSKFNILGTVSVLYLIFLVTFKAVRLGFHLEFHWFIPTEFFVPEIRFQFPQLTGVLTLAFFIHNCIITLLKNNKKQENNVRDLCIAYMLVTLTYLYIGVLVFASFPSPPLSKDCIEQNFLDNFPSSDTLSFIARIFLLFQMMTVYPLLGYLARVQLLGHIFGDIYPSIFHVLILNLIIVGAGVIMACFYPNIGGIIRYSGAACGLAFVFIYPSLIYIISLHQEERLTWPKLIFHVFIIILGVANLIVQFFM
Protocol: as §1, §2

FLAG-SLC38A9.4 = molecular target: T3, FLAG-SLC38A9.4 (human, UniProt Q8NBW4 120-561)
T3 construct: also called SLC38A9 isoform 4; isoform 4
T3 sequence: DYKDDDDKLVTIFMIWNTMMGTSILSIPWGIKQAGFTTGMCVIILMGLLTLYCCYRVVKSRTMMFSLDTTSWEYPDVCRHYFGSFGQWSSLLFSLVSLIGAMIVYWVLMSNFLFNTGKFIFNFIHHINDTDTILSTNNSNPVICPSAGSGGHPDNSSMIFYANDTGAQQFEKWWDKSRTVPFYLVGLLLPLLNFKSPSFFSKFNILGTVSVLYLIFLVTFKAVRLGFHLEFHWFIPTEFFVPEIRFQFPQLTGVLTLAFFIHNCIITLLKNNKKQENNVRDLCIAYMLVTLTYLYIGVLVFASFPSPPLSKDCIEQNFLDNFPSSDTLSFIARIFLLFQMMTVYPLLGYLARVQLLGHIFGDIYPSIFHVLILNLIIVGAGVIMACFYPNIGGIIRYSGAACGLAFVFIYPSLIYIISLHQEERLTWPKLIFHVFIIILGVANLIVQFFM
Protocol: as §1, §2

Measured: binding result

B1: endogenous RagC (enzyme)
chain: not shown
notes: Detected by immunoblot in anti-FLAG immunoprecipitates; also called RagC GTPase
no binding: all assays above
